Some targets named below: FIS1 (UniProt Q9Y3D6); ALDH3A2 (UniProt P51648); PEX13 (UniProt Q92968); PEX14 (UniProt O75381).
What all share (assay): FRET or BRET; BRET in living HEK293 cells co-transfected with Rluc (donor) and YFP (acceptor) fusions, acceptor to donor ratio 3:1; read 48 h later with coelenterazine 30 μM; all eight combinations of N- or C-terminal fusions tested in duplicates; interaction assumed if at least one combination gave a BRET ratio above the threshold of 0.094
The target of another experiment is T1, PEX11B (UniProt O96011).
T1 sequence: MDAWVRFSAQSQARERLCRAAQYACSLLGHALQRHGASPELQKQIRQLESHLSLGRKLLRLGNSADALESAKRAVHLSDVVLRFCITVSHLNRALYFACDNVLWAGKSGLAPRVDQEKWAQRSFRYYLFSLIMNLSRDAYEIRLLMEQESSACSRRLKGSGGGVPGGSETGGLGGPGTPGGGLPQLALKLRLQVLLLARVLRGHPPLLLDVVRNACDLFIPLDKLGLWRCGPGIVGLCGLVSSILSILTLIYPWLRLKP

Sequences of proteins named here, by UniProt entry; tags and fusion partners are left off.
UniProt Q9Y3D6: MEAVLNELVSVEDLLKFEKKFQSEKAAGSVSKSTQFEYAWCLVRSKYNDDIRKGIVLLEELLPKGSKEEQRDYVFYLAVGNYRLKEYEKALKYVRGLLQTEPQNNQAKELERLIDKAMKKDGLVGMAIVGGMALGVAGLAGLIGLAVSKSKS
UniProt P51648: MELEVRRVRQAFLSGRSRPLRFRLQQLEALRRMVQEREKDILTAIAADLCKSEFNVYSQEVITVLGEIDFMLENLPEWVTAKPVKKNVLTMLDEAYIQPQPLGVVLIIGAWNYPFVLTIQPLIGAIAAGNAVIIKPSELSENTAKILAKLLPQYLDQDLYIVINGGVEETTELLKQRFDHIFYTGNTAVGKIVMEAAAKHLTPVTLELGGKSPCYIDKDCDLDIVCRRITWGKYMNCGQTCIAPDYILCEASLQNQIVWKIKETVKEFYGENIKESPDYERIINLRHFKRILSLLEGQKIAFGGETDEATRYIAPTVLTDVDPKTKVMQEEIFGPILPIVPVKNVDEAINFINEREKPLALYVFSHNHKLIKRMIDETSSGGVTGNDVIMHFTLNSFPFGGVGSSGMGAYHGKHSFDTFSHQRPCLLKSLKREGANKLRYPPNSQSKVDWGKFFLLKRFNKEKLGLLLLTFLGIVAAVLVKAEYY
UniProt Q92968: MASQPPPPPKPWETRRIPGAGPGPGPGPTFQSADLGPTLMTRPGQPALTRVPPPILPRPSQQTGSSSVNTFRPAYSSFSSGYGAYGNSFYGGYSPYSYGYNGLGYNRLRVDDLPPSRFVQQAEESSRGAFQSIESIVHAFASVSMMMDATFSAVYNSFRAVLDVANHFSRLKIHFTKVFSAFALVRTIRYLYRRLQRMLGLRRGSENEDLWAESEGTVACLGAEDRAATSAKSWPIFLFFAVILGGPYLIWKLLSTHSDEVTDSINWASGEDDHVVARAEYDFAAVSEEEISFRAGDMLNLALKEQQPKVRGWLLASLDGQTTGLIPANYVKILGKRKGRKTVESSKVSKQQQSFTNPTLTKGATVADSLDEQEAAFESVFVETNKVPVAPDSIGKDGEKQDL
UniProt O75381: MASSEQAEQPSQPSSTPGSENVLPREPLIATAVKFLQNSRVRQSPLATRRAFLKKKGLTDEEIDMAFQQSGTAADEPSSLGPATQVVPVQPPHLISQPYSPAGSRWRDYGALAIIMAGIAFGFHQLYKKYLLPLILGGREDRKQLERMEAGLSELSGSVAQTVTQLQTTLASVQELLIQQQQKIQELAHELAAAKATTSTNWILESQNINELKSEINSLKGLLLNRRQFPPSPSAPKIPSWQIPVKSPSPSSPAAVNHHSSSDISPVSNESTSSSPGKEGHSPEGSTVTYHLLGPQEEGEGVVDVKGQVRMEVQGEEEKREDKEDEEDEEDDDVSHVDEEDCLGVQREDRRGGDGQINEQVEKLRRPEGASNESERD

The next experiment addresses T2, PXMP2 (UniProt Q9NR77).
T2 sequence: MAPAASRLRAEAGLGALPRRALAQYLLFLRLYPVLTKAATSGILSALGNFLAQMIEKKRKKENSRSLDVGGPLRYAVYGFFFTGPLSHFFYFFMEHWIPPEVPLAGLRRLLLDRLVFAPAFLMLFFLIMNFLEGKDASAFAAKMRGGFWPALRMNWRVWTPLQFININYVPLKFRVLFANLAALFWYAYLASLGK

For the next experiment, the target named is T3, PEX11G (UniProt Q96HA9).
T3 sequence: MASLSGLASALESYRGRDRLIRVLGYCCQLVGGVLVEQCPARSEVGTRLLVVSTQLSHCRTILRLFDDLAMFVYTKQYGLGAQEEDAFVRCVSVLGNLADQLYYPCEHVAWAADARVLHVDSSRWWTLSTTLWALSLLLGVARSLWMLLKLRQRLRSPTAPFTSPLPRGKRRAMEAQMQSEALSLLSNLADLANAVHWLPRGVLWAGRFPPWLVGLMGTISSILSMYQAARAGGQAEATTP

A further experiment concerns the target T4, ACBD5 (UniProt Q5T8D3).
T4 sequence: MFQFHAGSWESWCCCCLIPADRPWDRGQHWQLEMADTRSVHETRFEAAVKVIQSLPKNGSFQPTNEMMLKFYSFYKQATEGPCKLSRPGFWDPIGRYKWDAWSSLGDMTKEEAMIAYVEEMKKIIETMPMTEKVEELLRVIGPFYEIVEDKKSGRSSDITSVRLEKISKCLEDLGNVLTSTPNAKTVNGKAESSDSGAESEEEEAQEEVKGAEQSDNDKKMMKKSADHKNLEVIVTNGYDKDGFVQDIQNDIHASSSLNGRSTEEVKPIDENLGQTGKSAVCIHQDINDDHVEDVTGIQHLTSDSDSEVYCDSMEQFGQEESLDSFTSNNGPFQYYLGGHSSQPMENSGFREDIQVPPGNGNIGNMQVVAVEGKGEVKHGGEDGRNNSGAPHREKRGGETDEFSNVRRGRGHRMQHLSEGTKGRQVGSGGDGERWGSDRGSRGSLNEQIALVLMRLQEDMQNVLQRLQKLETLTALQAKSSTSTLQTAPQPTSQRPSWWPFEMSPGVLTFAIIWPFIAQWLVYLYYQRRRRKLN

In another experiment the target is T5, ECH1 (UniProt Q13011).
T5 sequence: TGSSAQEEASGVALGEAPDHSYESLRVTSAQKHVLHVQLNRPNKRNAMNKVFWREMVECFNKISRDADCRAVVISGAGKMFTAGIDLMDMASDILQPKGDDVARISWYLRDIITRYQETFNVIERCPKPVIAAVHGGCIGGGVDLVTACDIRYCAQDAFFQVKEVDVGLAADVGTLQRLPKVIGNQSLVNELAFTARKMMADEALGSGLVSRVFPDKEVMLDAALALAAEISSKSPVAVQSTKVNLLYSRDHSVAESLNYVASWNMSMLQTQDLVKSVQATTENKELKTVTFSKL

No constants are given. Whether binding was seen depends on the method and setting. Binding seen in cells or lysates may run through a third protein. Some entries that bind do so weakly or less than the wild type.

B1: peroxisome biogenesis factor 26 (PEX26) wild-type (protein, UniProt Q7Z412-1 1-305)
chain: MKSDSSTSAAPLRGLGGPLRSSEPVRAVPARAPAVDLLEEAADLLVVHLDFRAALETCERAWQSLANHAVAEEPAGTSLEVKCSLCVVGIQALAEMDRWQEVLSWVLQYYQVPEKLPPKVLELCILLYSKMQEPGAVLDVVGAWLQDPANQNLPEYGALAEFHVQRVLLPLGCLSEAEELVVGSAAFGEERRLDVLQAIHTARQQQKQEHSGSEEAQKPNLEGSVSHKFLSLPMLVRQLWDSAVSHFFSLPFKKSLLAALILCLLVVRFDPASPSSLHFLYKLAQLFRWIRKAAFSRLYQLRIRD
For B1, the binding entry in the experiment with PEX11B, with PXMP2, with PEX11G, with FIS1, with ALDH3A2 and with ACBD5 was “binds” each time. Moreover, the binding result with PEX13, with PEX14 and with ECH1 was “binds” in each case.

B2: PEX26 p.Pro118Arg (protein, UniProt Q7Z412-1 1-305)
chain: MKSDSSTSAAPLRGLGGPLRSSEPVRAVPARAPAVDLLEEAADLLVVHLDFRAALETCERAWQSLANHAVAEEPAGTSLEVKCSLCVVGIQALAEMDRWQEVLSWVLQYYQVPEKLPRKVLELCILLYSKMQEPGAVLDVVGAWLQDPANQNLPEYGALAEFHVQRVLLPLGCLSEAEELVVGSAAFGEERRLDVLQAIHTARQQQKQEHSGSEEAQKPNLEGSVSHKFLSLPMLVRQLWDSAVSHFFSLPFKKSLLAALILCLLVVRFDPASPSSLHFLYKLAQLFRWIRKAAFSRLYQLRIRD
Turning to B2, the binding result with PEX11B was “no binding”; in the experiment with PXMP2 it was “binds”; with FIS1 it was “binds”; in the experiment with ALDH3A2 it was “binds”; in the experiment with ACBD5, “no binding”; in the experiment with PEX14, “binds”. In the experiment with ECH1, the binding entry is given as “binds”.

B3: PEX26 p.Leu44Pro (protein, UniProt Q7Z412-1 1-305)
chain: MKSDSSTSAAPLRGLGGPLRSSEPVRAVPARAPAVDLLEEAADPLVVHLDFRAALETCERAWQSLANHAVAEEPAGTSLEVKCSLCVVGIQALAEMDRWQEVLSWVLQYYQVPEKLPPKVLELCILLYSKMQEPGAVLDVVGAWLQDPANQNLPEYGALAEFHVQRVLLPLGCLSEAEELVVGSAAFGEERRLDVLQAIHTARQQQKQEHSGSEEAQKPNLEGSVSHKFLSLPMLVRQLWDSAVSHFFSLPFKKSLLAALILCLLVVRFDPASPSSLHFLYKLAQLFRWIRKAAFSRLYQLRIRD
For B3, the binding result in the experiment with PEX11B was “no binding”; in the experiment with PXMP2, “binds”; in the experiment with FIS1, “binds”; with ALDH3A2 it was “binds”; with ACBD5 it was “no binding”; with PEX14, “binds”. The binding result with ECH1 is “binds”.

B4: PEX26 p.Leu45Pro (protein, UniProt Q7Z412-1 1-305)
chain: MKSDSSTSAAPLRGLGGPLRSSEPVRAVPARAPAVDLLEEAADLPVVHLDFRAALETCERAWQSLANHAVAEEPAGTSLEVKCSLCVVGIQALAEMDRWQEVLSWVLQYYQVPEKLPPKVLELCILLYSKMQEPGAVLDVVGAWLQDPANQNLPEYGALAEFHVQRVLLPLGCLSEAEELVVGSAAFGEERRLDVLQAIHTARQQQKQEHSGSEEAQKPNLEGSVSHKFLSLPMLVRQLWDSAVSHFFSLPFKKSLLAALILCLLVVRFDPASPSSLHFLYKLAQLFRWIRKAAFSRLYQLRIRD
With B4, the binding result with PEX11B was “no binding”; in the experiment with PXMP2 it was “binds”; in the experiment with FIS1 it was “binds”; with ALDH3A2 it was “binds”; with ACBD5 it was “no binding”; in the experiment with PEX14, “binds”. The binding entry with ECH1 is recorded as “binds”.

B5: PEX26 p.Gly89Arg (protein, UniProt Q7Z412-1 1-305)
chain: MKSDSSTSAAPLRGLGGPLRSSEPVRAVPARAPAVDLLEEAADLLVVHLDFRAALETCERAWQSLANHAVAEEPAGTSLEVKCSLCVVRIQALAEMDRWQEVLSWVLQYYQVPEKLPPKVLELCILLYSKMQEPGAVLDVVGAWLQDPANQNLPEYGALAEFHVQRVLLPLGCLSEAEELVVGSAAFGEERRLDVLQAIHTARQQQKQEHSGSEEAQKPNLEGSVSHKFLSLPMLVRQLWDSAVSHFFSLPFKKSLLAALILCLLVVRFDPASPSSLHFLYKLAQLFRWIRKAAFSRLYQLRIRD
For the molecule B5, the binding result with PEX11B is on record as “no binding”; in the experiment with PXMP2 it was “binds”; in the experiment with FIS1, “binds”; with ALDH3A2, “no binding”; in the experiment with ACBD5 it was “no binding”; with PEX14, “binds”. Further, in the experiment with ECH1, the binding entry is “binds”.

B6: PEX26 p.Arg98Trp (protein, UniProt Q7Z412-1 1-305)
chain: MKSDSSTSAAPLRGLGGPLRSSEPVRAVPARAPAVDLLEEAADLLVVHLDFRAALETCERAWQSLANHAVAEEPAGTSLEVKCSLCVVGIQALAEMDWWQEVLSWVLQYYQVPEKLPPKVLELCILLYSKMQEPGAVLDVVGAWLQDPANQNLPEYGALAEFHVQRVLLPLGCLSEAEELVVGSAAFGEERRLDVLQAIHTARQQQKQEHSGSEEAQKPNLEGSVSHKFLSLPMLVRQLWDSAVSHFFSLPFKKSLLAALILCLLVVRFDPASPSSLHFLYKLAQLFRWIRKAAFSRLYQLRIRD
Regarding B6, the binding result with PEX11B is listed as “no binding”; with PXMP2 it was “binds”; with FIS1 it was “binds”; with ALDH3A2, “no binding”; with ACBD5 it was “no binding”; with PEX14 it was “binds”. In the experiment with ECH1, the binding result was “binds”.
